Hit rate of the full screen: of about 150,000 compounds, about 540 (0.36%) showed an effect of 50% or more. This is one part of the list.
System: Plasmodium falciparum
Assay: Primary screen in NF54 nanoGlo assay, in single point, at 2uM, 72h; a lower Z score goes with more inhibition
Format: functional, Erythrocyte
Conditions: timepoint 72 hour

| SMILES | % Inhibition [%] | Z score |
| --- | --- | --- |
| CO[C@H]1CCN(Cc2ccnc3ccccc23)C1 | -1 | 0.15 |
| O=C(NCc1cccs1)OCC(F)(F)F | 1 | -0.08 |
| CCn1ncnc1[C@H](C)NC(=O)c1ccc(-c2c(C)[nH]c(=O)[nH]c2=O)cc1 | -10 | 1.21 |
| Nc1c2c(-c3cccs3)nc(NCCc3cccs3)nc2nn1-c1ccccc1 | -16 | 2.4 |
| Cc1nc(CCn2ccccc2=O)n(-c2ccc(F)cc2F)n1 | -1 | 0.11 |
| CC(C)n1c(=O)[nH]c2cc(C(=O)N3CCO[C@@H](C)C3)ccc2c1=O | -2 | 0.27 |
| O=C(NCC1CCCO1)C1COC2(CCN(C(=O)c3ccccc3F)CC2)N1C(=O)c1cccc(F)c1 (stereo not drawn) | -11 | 2.14 |
| CC(=O)N(c1ccc(N(C(C)=O)S(=O)(=O)c2ccc(Cl)cc2)c2ccccc12)S(=O)(=O)c1ccc(Cl)cc1 | -9 | 1.69 |
| CC(C)[C@H](OC(=O)c1[nH]c2ccc(Cl)cc2c1Cl)C(=O)N1CCOCC1 | 24 | -2.66 |
| Cc1ncsc1CN(C)C(=O)[C@@H]1COCCN1 | -5 | 0.7 |
| CCCN(C[C@H]1CCCCO1)C(=O)c1c(C)c(C)n[nH]c1=O | -2 | 0.31 |
| CCOc1ccc2c(c1)[C@@H](NC(=O)Nc1cc(C)nn1-c1ccccn1)CCO2 | 3 | -0.59 |
| COc1ccc(CNc2ccc(Cl)c(N3CCNC3=O)c2)cc1O | -10 | 1.6 |
| COC1CC(C(=O)N(C)c2ccc(C)cc2F)C1 (stereo not drawn) | -14 | 1.43 |
| C#CC[C@H](Nc1ncc(Br)cn1)C(N)=O | 2 | -0.26 |
| O=C(Cn1nc(-c2ccccc2)ccc1=O)N1CCOCC1 | 28 | -3.2 |
| CCOc1ccccc1NC(=O)Cn1cnc2c(-c3ccncc3)nsc2c1=O | -13 | 1.63 |
| COC(=O)COc1cc(-c2ccc(OC)cc2)nc2ccc(NC(=O)c3ccc(OC)cc3)cc12 | 13 | -1.3 |
| CC(C)Oc1ccc(-c2ccc(NC(=O)N(C)C[C@H]3C[C@@H](O)C3)c(F)c2)cc1 | -8 | 1.01 |
| CN1CC[C@](C)(CN(C)Cc2[nH]c3ccccc3c2Cl)C1 | -5 | 0.69 |
| CN1CCN(c2nc3nccc(-c4ccc(Cl)cc4)c3c(=O)[nH]2)CC1 | -13 | 1.82 |

| SMILES | % Inhibition [%] | Z score |
| --- | --- | --- |
| CN(CCCn1cccn1)Cc1cc(=O)n2ccsc2n1 | 7 | -1.38 |
| O=C1CCc2cc(NCc3ccco3)ccc2N1CC1CC1 | -17 | 2.56 |
| CC(=O)CC(=O)Nc1ccc(Cl)cc1C | -10 | 1.26 |
| O=C(c1nnn2c1c(=O)[nH]c1cc(F)ccc12)N1CCCCC1 | 1 | -0.23 |
| CC(=O)Nc1cccc(NC(=O)c2cn(CC3(O)CCN(Cc4ccccc4)CC3)nn2)c1 | 30 | -3.44 |
| COc1ccc(Cl)cc1S(=O)(=O)c1cnc(N2CCC[C@H](C)C2)nc1N | 0 | -0.05 |
| C=C(C)CC(C)C(=O)N1CCN(CC2CCCS2(=O)=O)CC1 (stereo not drawn) | -2 | 0.33 |
| N#CCCn1cc(CNc2ccc(Cl)c(Cl)c2)c(-c2ccccc2)n1 | 4 | -0.4 |
| CCC(CC)c1nnc(NC(=O)c2cc(C)oc2C)s1 | -16 | 1.34 |
| CCc1nccn1CCN(C)CCN(C)C1CCCC1 | 2 | -0.26 |
| CC(C)c1nccc(CN2CC[C@H](CNC(=O)C(C)(C)C)C2)n1 | -9 | 1.25 |
| COc1ccc(-c2cc(C3CC3)ncn2)c(C)c1 | -4 | 0.65 |
| CC(C)(C)Oc1cc(C(=O)NCc2ccc3c(c2)OCO3)ccn1 | 3 | -0.35 |
| CCC(=O)NCCc1ncc(C)n1C1CCCCCCC1 | 0 | -0.05 |
| CC(C)Oc1ccc(CN2CC(c3nc(-c4ccsc4)nn3C)C2)cc1 | 26 | -3.56 |
| c1coc(CCCN2CCC[C@H](c3nnc4ccccn34)C2)c1 | -5 | 0.74 |
| CCN(CC)CCCNC(=O)c1ccc(-c2[nH]nc3c2CCCc2ccccc2-3)cc1 | -6 | 0.84 |
| Cc1cccc(N2CCC(NC(=O)[C@@H]3CCCCN3C(=O)c3ccccc3)CC2)c1 | 7 | -1.18 |
| N#Cc1cnc(NCCCCc2ccnc(N)c2)c(Cl)c1 | -7 | 0.86 |
| CCOC(=O)c1nn(Cc2ccccn2)c2c1CN(C(=O)c1cc(C)nn1C)CC2 | -9 | 1.09 |
| CC(C)C1(C)CC1C(=O)N1CCN(C(=O)CN2CCOCC2)CC1 (stereo not drawn) | -3 | 0.6 |

| SMILES | % Inhibition [%] | Z score |
| --- | --- | --- |
| COc1ccnc(NC2CCN(C(=O)Nc3ccc(C4CC4)c(F)c3)CC2)n1 | -9 | 0.82 |
| O=C(Nc1cc(S(=O)(=O)N2CCCC2)ccc1OCC(F)(F)F)[C@@H]1CC=CCC1 | 6 | -0.63 |
| Cc1csc([C@H](C)OC(=O)c2cccnc2)n1 | -7 | 1.04 |
| Cc1c(C(=O)N2CC3CCC2C3)cnn1-c1ncc2c(n1)-c1ccccc1CCC2 (stereo not drawn) | 27 | -3.58 |
| COc1ccccc1NC(=O)CC1CS(=O)(=O)CC1CC(=O)Nc1ccccc1OC (stereo not drawn) | 39 | -1.29 |
| O=S(=O)(Nc1nc(-c2ccccn2)cs1)c1cccc(F)c1 | -16 | 2.06 |
| O=C(NC1(CN2CCN(c3ccc(F)cc3)CC2)CC1)c1cc(O)ncn1 | -4 | 0.72 |
| NC(=O)C[C@H]1CCCN(S(=O)(=O)CC2CCCC2)C1 | -13 | 1.64 |
| COCc1cc(Cl)ccc1NC(=O)N[C@H]1CCO[C@@H]1c1ccncc1 | -6 | 1.11 |
| O=C(CCCCc1nc2ccccc2s1)N1CCOCC1 | 34 | -3.9 |
| NC(=O)c1ccc(NC(=O)[C@H](Cc2ccccc2)NC(=O)N2CCCC2)cc1 | 3 | -0.33 |
| CCCOC(=O)c1cc(-c2cncnc2)ccc1N | -10 | 1.82 |
| CCc1ccc(-c2nc3oc(-c4ccccc4)nc3c(=O)[nH]2)cc1 | 2 | -0.29 |
| CC(C)(C)OC(=O)N1CCC[C@@](O)(C2(C(=O)NCC#N)CCC2)C1 | -5 | 0.97 |
| CCOC(=O)CCN1CC(C)CC(C)C1 (stereo not drawn) | 6 | -0.74 |
| Cc1noc([C@]23CN(Cc4cccnc4)CC[C@H]2CN(Cc2ccccc2)C3)n1 | -1 | 0.08 |
| CCn1ncc2c1NC(=O)C[C@@H]2c1ccccc1Cn1cccn1 | -6 | 1.12 |
| COc1nc(NC2CCS(=O)(=O)CC2)ncc1F | 65 | -7.11 |
| Cc1noc(CCCNC(=O)N2CC(c3ccccc3)C3COCCC32)n1 (stereo not drawn) | -16 | 2.66 |
| CCCS(=O)(=O)C(C)C(=O)NCC(C)(O)c1ccc(F)cc1F (stereo not drawn) | 15 | -1.83 |
| c1coc([C@@H]2CCCN2CCn2cnc3ccccc32)c1 | 3 | -0.43 |

| SMILES | % Inhibition [%] | Z score |
| --- | --- | --- |
| C[C@@H](c1cc(-c2ccccc2)[nH]n1)N(C)C(=O)NC1(C2CC2)CC1 | -15 | 1.61 |
| CC(C)(C)c1ccc(S(=O)(=O)N2CCC[C@H](n3cncn3)C2)cc1 | -9 | 1.22 |
| COc1nccnc1N1CCC2(CC1)OCCC[C@@H]2OC | -12 | 2.62 |
| Cc1sc(-c2ccccc2F)nc1C(=O)Nc1ccc2c(c1)OCO2 | 0 | -0.03 |
| Cn1nc(C(F)(F)F)c(C#N)c1OC(=O)c1c(F)cccc1F | -6 | 0.68 |
| Cc1noc(C)c1S(=O)(=O)N1CCc2cc(Br)ccc2C1 | -9 | 0.88 |
| CCN1C[C@H](NC(=O)C2(N3CCCC3)CCCCC2)[C@@H](OC)C1 | 10 | -1.88 |
| Cc1cc(-c2ccc(C(=O)N3CCC[C@](C)(O)CC3)cc2)c2ccccc2n1 | 3 | -0.55 |
| CC[C@H]1CCN(C(=O)C2CCN(c3ccc(C)cn3)CC2)C1 | -12 | 2.48 |
| CNC(=O)N1C[C@@H](CN(C)C)[C@H](NC(=O)c2cc(C)cc(C)c2)C1 | -14 | 2.2 |
| CCc1ccccc1CC(=O)N1CC[C@](CO)(COC)C1 | -17 | 1.69 |
| Cc1cccc2c1cnn2CCC(=O)NC1CCCC1 | 28 | -3.76 |
| Cc1noc(NCc2ccc(Cl)cc2)n1 | 48 | -5.43 |
| CC(C)(C)OC(=O)n1ccc2cccc(S(=O)(=O)NC[C@H]3COCCO3)c21 | -21 | 2.24 |
| COc1ccc2c(c1)CCc1c-2noc1-c1ccc(C)c(NC(=O)c2c(-c3ccccc3)noc2C)c1 | -9 | 1.31 |
| COC(=O)CCc1csc(NCc2c(C(F)(F)F)cnn2C)n1 | -5 | 0.79 |
| CC1(C)COCCN1C(=O)Cc1cnn(-c2ccccc2)n1 | 32 | -0.49 |
| CS(=O)(=O)N1CCC[C@H]1C(=O)N1CCC2(CC1)Cc1cccc(c1)Oc1cccc(c1)CCNC2=O | 9 | -1.21 |
| CCC(=O)N1CCc2ccc(OCc3ccc(C(=O)N(C)Cc4ccccc4)o3)cc2[C@@H]1c1cccc(C)c1 | -18 | 1.71 |
| CCN1CCC(CNC(=O)c2ccc(O)cc2C)(N(C)C)CC1 | -7 | 0.67 |
| COCCN(C(=O)NCc1c(C)cc(C)[nH]c1=O)C1CC1 | -19 | 1.7 |
